Measurements as given in PubChem BioAssay AID2147 (National Center for Advancing Translational Sciences (NCATS), 2009).
Hit rate of the full screen: of about 230,000 compounds, about 3,600 (1.6%) were called active. The shares of active, inactive and inconclusive entries below differ from those in the screen. Calls follow the shape of the dose curve; as a rule, active = well fitted inhibition curve with a large enough effect (not every such curve was filed as active); inconclusive = small, poorly fitted or top-dose-only effect, or another doubt; inactive = no such curve, though single readings can be large or run the other way. Potencies of inconclusive entries are doubtful fits and often do not repeat.

The compounds below were run against Lysine-specific demethylase 4E (Homo sapiens) (UniProt B2RXH2) (assay: qHTS Assay for Inhibitors of Human Jumonji Domain Containing 2E (JMJD2E)). Settings: JMJD2E catalytic domain, FDH-coupled NADH fluorescence (FDH is formaldehyde dehydrogenase); series mostly up to 57.1 µM.
Also: nearly all actives have a fitted effect of over 50% in size.
Potency is read from the fitted curve at half-maximal effect; tags tell the direction and shape of the fitted curve.

UniProt B2RXH2, sequence (B2RXH2 whole entry, looked up, the tested form may be a part): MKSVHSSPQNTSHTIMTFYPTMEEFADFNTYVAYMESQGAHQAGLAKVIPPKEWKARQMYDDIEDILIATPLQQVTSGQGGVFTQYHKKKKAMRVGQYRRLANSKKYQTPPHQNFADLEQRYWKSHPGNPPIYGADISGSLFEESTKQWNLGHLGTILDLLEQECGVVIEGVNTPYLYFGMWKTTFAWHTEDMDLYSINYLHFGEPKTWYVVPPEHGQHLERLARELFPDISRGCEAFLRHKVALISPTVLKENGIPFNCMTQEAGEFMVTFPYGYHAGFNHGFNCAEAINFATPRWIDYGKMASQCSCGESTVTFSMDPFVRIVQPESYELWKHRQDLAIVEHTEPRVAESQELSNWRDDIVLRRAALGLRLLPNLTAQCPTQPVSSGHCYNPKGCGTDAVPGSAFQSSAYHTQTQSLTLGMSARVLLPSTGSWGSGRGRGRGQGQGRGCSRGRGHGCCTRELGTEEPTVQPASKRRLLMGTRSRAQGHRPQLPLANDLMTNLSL

Q: With `O=C(Nc1ccc(NC(=O)c2cccs2)cn1)c1ccccc1` as the compound, how does the Potency read?
A: inconclusive: 28.2 µM [inhibitor, partial curve]

Q: `COc1ccc(CCN(C)C(=O)C2CCN(Cc3ccccc3)CC2)cc1OC` was tested. Which Potency did it give?
A: inconclusive: 31.6 µM [inhibitor, single point]

Q: For `Cc1cccc(N2CCN(CC(O)COc3ccc(Cl)cc3)CC2)c1` (stereo unspecified), which Potency is on record?
A: inactive

Q: Which Potency does the source give for `CCN(CC)CCN1c2ccccc2Sc2ccc3ccccc3c21` here?
A: inconclusive: 39.8 µM [inhibitor, single point]

Q: With `Cc1cccc(NC(=S)N/N=C/c2c[nH]c3ccccc23)c1` as the compound, how does the Potency read?
A: inconclusive: 39.8 µM [inhibitor, single point]

Q: For `C=CCSc1nc2c(sc3nc(C)cc(C)c32)c(=O)[nH]1`, which Potency is on record?
A: inconclusive: 11.2 µM [inhibitor, partial curve]

Q: Which Potency does the source give for `CCC(=O)Nc1c(S(=O)(=O)c2ccccc2)c2nc3ccccc3nc2n1C(C)c1ccccc1` (stereo unspecified) here?
A: inconclusive: 28.2 µM [inhibitor, partial curve]

Q: How did the Potency turn out when `COc1cc(OC)c(OC)cc1/C=N/Nc1ncnc2c1[nH]c1ccc(C)cc12` was run?
A: inconclusive: 25.1 µM [inhibitor, partial curve]

Q: With `O=C1CC(N2CCN(c3ccc(F)cc3)CC2)C(=O)N1Cc1ccc(N2CCCC2=O)cc1` (stereo unspecified) as the compound, how does the Potency read?
A: inconclusive: 39.8 µM [inhibitor, single point]

Q: Which Potency does the source give for `Cc1ccc(CN2CCC(CO)(CC3CCCCO3)CC2)o1` (stereo unspecified) here?
A: inactive

Q: `COc1ccc(/C=N/NC(=S)Nc2ccccc2[N+](=O)[O-])cc1O` was tested. Which Potency did it give?
A: inconclusive: 7.08 µM [inhibitor, partial curve]

Q: `COCCN(CCOC)c1nc(C)nc2c1nc(-c1ccccc1)n2CC1CCN(C)CC1` was tested. Which Potency did it give?
A: inconclusive: 22.4 µM [inhibitor, partial curve]

Q: Which Potency does the source give for `N#Cc1ccccc1Cn1c(=O)n(Cc2ccc(C(=O)NCc3ccco3)cc2)c(=O)c2sccc21` here?
A: inconclusive: 39.8 µM [inhibitor, single point]

Q: For `CCCCOc1ccc(NC(=O)CSc2cccc3cccnc23)cc1`, which Potency is on record?
A: inconclusive: 35.5 µM [inhibitor, single point]

Q: Which Potency does the source give for `COc1ccc(OC)c(-c2cc(-c3cccnc3)nc(N)c2C#N)c1` here?
A: inconclusive: 39.8 µM [inhibitor, single point]

Q: With `O=C(CSc1nc2cc(Cl)ccc2s1)c1cc2ccccc2o1` as the compound, how does the Potency read?
A: inconclusive: 10 µM [inhibitor, partial curve]

Q: For `CCOCCCNC(=O)C(c1ccc(Cl)cc1)N1CCN(C(=O)c2ccco2)CC1` (stereo unspecified), which Potency is on record?
A: inconclusive: 39.8 µM [inhibitor, single point]

Q: With `COC(=O)c1scc(C)c1S(=O)(=O)Nc1ccc(C)cc1` as the compound, how does the Potency read?
A: inactive

Q: With `CCCCN1C=CC(=C2C(=O)c3ccccc3C2=O)C=C1` as the compound, how does the Potency read?
A: inactive

Q: For `CCOC(=O)c1nn(-c2ccc(F)cc2)c(=O)c2c(N)scc12`, which Potency is on record?
A: inactive

Q: `Nn1c(SCc2csc(-c3ccccc3)n2)nnc1-c1cccs1` was tested. Which Potency did it give?
A: inconclusive: 35.5 µM [inhibitor, single point]

Q: `COc1ccc(Oc2nc(-c3ccccc3)ncc2C(=O)O)cc1` was tested. Which Potency did it give?
A: inactive

Q: How did the Potency turn out when `CCOc1cc(C)c(S(=O)(=O)Nc2ccc(Cl)cn2)cc1C` was run?
A: inconclusive: 39.8 µM [inhibitor, single point]

Q: Which Potency does the source give for `CCCc1cc(C(N)=O)c(NC(=O)c2ccco2)s1` here?
A: inconclusive: 35.5 µM [inhibitor, single point]

Q: `COc1cccc(/C=N/NC(=O)CCc2n[nH]c(=O)[nH]c2=O)c1O` was tested. Which Potency did it give?
A: inactive

Q: `Cc1ccc(N2C(N)=C(C#N)C(c3cccnc3)C3=C2CC(C)(C)CC3=O)cc1` (stereo unspecified) was tested. Which Potency did it give?
A: inconclusive: 31.6 µM [inhibitor, single point]

Q: With `Cc1cc(N2CCCC2)nc(-c2ccccc2O)n1` as the compound, how does the Potency read?
A: inconclusive: 6.31 µM [inhibitor, single point]

Q: For `COc1ccccc1NC(=O)N(CCN1CCOCC1)Cc1cc2cc(C)cc(C)c2[nH]c1=O`, which Potency is on record?
A: inconclusive: 35.5 µM [inhibitor, single point]

Q: Which Potency does the source give for `O=C(O)c1cc(/C=N\O)ccc1OCc1ccccc1` here?
A: inconclusive: 39.8 µM [inhibitor, single point]

Q: For `COc1ccc(Nc2nc(N)nc(CSc3nc(C)cc(C)n3)n2)cc1`, which Potency is on record?
A: inactive

Q: For `COC(=O)c1ccc(N2C(=O)CC(N3CCC(O)(c4ccc(Br)cc4)CC3)C2=O)cc1` (stereo unspecified), which Potency is on record?
A: inactive

Q: `CCN(CC)S(=O)(=O)c1ccc2c(c1)nc(CCC(=O)OCC(=O)Nc1cc(OC)cc(OC)c1)n2C` was tested. Which Potency did it give?
A: inactive

Q: How did the Potency turn out when `COc1cc(C(=O)Nc2cccc(-c3cn4cccnc4n3)c2)cc(OC)c1OC` was run?
A: inconclusive: 28.2 µM [inhibitor, partial curve]

Q: How did the Potency turn out when `CC1=CC(C)(C)Nc2ccc(OC(=O)CN3C(=O)C4CCCCC4C3=O)cc21` (stereo unspecified) was run?
A: inconclusive: 35.5 µM [inhibitor, partial curve]

Q: Which Potency does the source give for `CC(=O)Nc1ccc(S(=O)(=O)Nc2cccc(NC(=O)C(C)(C)C)c2)cc1` here?
A: inconclusive: 20 µM [inhibitor, partial curve]

Q: Which Potency does the source give for `CC1Cc2ccccc2N1CC(=O)Nc1ccc(S(=O)(=O)N(C)C)cc1` (stereo unspecified) here?
A: inactive

Q: How did the Potency turn out when `CC1CCC(C(C)C)C(=O)C1` (stereo unspecified) was run?
A: inactive

Q: `CN(C)C(=O)N1CCCC(C(=O)NCCc2ccccc2)C1` (stereo unspecified) was tested. Which Potency did it give?
A: inactive

Q: `O=C(N/N=C1\CCS(=O)(=O)c2ccc(F)cc21)c1ccc([N+](=O)[O-])cc1` was tested. Which Potency did it give?
A: inconclusive: 39.8 µM [inhibitor, single point]

Q: How did the Potency turn out when `O=C(CN(c1ccccc1)S(=O)(=O)c1ccccc1)N1CCN(Cc2ccc3c(c2)OCO3)CC1` was run?
A: inactive

Q: Which Potency does the source give for `COC(=O)c1cnn(-c2ccc(C)c(C)c2)c1-n1cccc1` here?
A: inconclusive: 0.112 µM [inhibitor, full curve]

Q: For `CC(C)C[C@H](NC(=O)c1[nH]cnc1C(=O)Nc1ccc(Cl)cc1)C(=O)OC(C)(C)C`, which Potency is on record?
A: inconclusive: 39.8 µM [inhibitor, single point]

Q: With `CNc1ccc(Br)cc(C(=O)/C=C/c2cccc(OC)c2)c1=O` as the compound, how does the Potency read?
A: inconclusive: 15.8 µM [inhibitor, partial curve]

Q: For `CC(=O)Nc1ccc(S(=O)(=O)Nc2nc(CN3CCOCC3)nc3sc4c(c23)CCCC4)cc1`, which Potency is on record?
A: inconclusive: 28.2 µM [inhibitor, partial curve]

Q: Which Potency does the source give for `Cc1c(/C=C/C(=O)c2ccccc2O)cnn1C` here?
A: inconclusive: 35.5 µM [inhibitor, single point]

Q: How did the Potency turn out when `Cc1cccc(OC(=O)CCN2C(=O)C3C4C=CC(C5CC45)C3C2=O)c1C` (stereo unspecified) was run?
A: inactive

Q: With `CCOC(=O)c1sc2nc(C)nc(SCC(=O)NC3CCS(=O)(=O)C3)c2c1C` (stereo unspecified) as the compound, how does the Potency read?
A: inconclusive: 22.4 µM [inhibitor, partial curve]

Q: How did the Potency turn out when `O=C(Nc1ccc(F)cc1)Nc1ccccc1C(=O)NCCN1CCNC1=O` was run?
A: inconclusive: 35.5 µM [inhibitor, single point]

Q: For `CCOC(=O)c1[nH]c(C=O)c(C(=O)OCC)c1C`, which Potency is on record?
A: inactive

Q: For `COc1ccc(NC2=CC(c3ccc(OC)c(OC)c3)N(c3ccc(OC)cc3)C2=O)cc1` (stereo unspecified), which Potency is on record?
A: inactive

Q: How did the Potency turn out when `Cc1nc(NC(=O)c2ccccc2)sc1-c1csc(Nc2ccc(C(=O)O)cc2)n1` was run?
A: inactive

Q: For `COc1ccccc1-c1noc(-c2cc(OC)c(OC)c(OC)c2)n1`, which Potency is on record?
A: inconclusive: 22.4 µM [inhibitor, partial curve]

Q: Which Potency does the source give for `Cc1ccc(CSc2nnc(-c3ccncc3)o2)c(C)c1` here?
A: inactive

Q: With `Oc1ccccc1/C=N/NC1=NCCCCC1` as the compound, how does the Potency read?
A: inconclusive: 10 µM [inhibitor, partial curve]

Q: How did the Potency turn out when `CN(C(=O)COC(=O)c1n[nH]c2ccccc12)c1ccccc1` was run?
A: inconclusive: 39.8 µM [inhibitor, single point]

Q: `O=C(NCc1ccccn1)c1cnc2sccn2c1=O` was tested. Which Potency did it give?
A: inconclusive: 35.5 µM [inhibitor, single point]

Q: For `COc1ccc(COCC(O)CN2CCC(C(N)=O)CC2)cc1` (stereo unspecified), which Potency is on record?
A: inactive

Q: Which Potency does the source give for `Cc1cc(C)nc(NC(=O)/C=C/c2ccc3c(c2)OCO3)c1` here?
A: inconclusive: 35.5 µM [inhibitor, partial curve]

Q: `Fc1ccc(-c2csc(NC3=NCCC3)n2)cc1` was tested. Which Potency did it give?
A: inactive

Q: For `CCCCN(C)S(=O)(=O)c1ccc(C(=O)Nc2nnc(-c3cccs3)o2)cc1`, which Potency is on record?
A: inconclusive: 39.8 µM [inhibitor, single point]

Q: For `CC(C)(Cc1ccc(O)cc1)NC(=O)CC(=O)N/N=C/c1ccc([N+](=O)[O-])cc1`, which Potency is on record?
A: inconclusive: 0.0282 µM [inhibitor, full curve]

Q: How did the Potency turn out when `COc1cccc(-c2nn(-c3ccccc3)cc2C(=O)Nc2nccs2)c1` was run?
A: inactive

Q: How did the Potency turn out when `O=C(c1ccccc1)N(CCO)Cc1cc2cc3c(cc2[nH]c1=O)OCCO3` was run?
A: inconclusive: 12.6 µM [inhibitor, partial curve]

Q: Which Potency does the source give for `COc1cc(/C=N/NC(=S)Nc2cccc(Cl)c2C)ccc1OCC(=O)N1CC(C)OC(C)C1` (stereo unspecified) here?
A: inconclusive: 35.5 µM [inhibitor, single point]

Q: How did the Potency turn out when `Nc1ccc(N2CCCCCC2)cc1` was run?
A: inconclusive: 8.91 µM [inhibitor, partial curve]

Q: With `Cc1cc(C)c2ccc(=S)[nH]c2n1` as the compound, how does the Potency read?
A: inconclusive: 11.2 µM [inhibitor, partial curve]

Q: Which Potency does the source give for `CC1(C)C(=O)Nc2ccccc2N1C(=O)COC(=O)C1CCCCC1` here?
A: inactive

Q: How did the Potency turn out when `COc1cc(/C=C/C(=O)NCCc2ccc(S(N)(=O)=O)cc2)ccc1OCC#N` was run?
A: inconclusive: 31.6 µM [inhibitor, partial curve]

Q: Which Potency does the source give for `CCCCC(=O)NC(c1ccccc1OC)c1ccc2cccnc2c1O` (stereo unspecified) here?
A: inconclusive: 39.8 µM [inhibitor, single point]

Q: How did the Potency turn out when `COc1ccc(-c2oc3ncn4nc(COc5ccccc5)nc4c3c2-c2ccc(OC)cc2)cc1` was run?
A: inconclusive: 0.794 µM [inhibitor, full curve, poor fit]

Q: Which Potency does the source give for `CC(=O)Nc1ccc(Nc2cc(C)nc3c(-c4ccccc4)cnn23)cc1` here?
A: inconclusive: 35.5 µM [inhibitor, partial curve]
